Experimental data: the supplement of paper PMC10369915
The list shows a part of the results. No stated cut-off is given here; in the data, active = 3.2 or more and inactive = the rest. Most of these values are background signal.

B1: WAS_Y102 (peptide)
chain: WEQELYSQLVY
B2: WAS_Y83_F84L_YF (peptide)
chain: NPQKSYLIRLF
B3: WAS_Y83_R86C (peptide)
chain: NPQKSYFICLY
B4: WAS_Y83_R86C_YF (peptide)
chain: NPQKSYFICLF
B5: WAS_Y83_R86H_YF (peptide)
chain: NPQKSYFIHLF
B6: WAS_Y83_R86L (peptide)
chain: NPQKSYFILLY
B7: WAS_Y83_R86L_YF (peptide)
chain: NPQKSYFILLF
B8: WAS_Y83_S82P (peptide)
chain: NPQKPYFIRLY
B9: WAS_Y83_Y83C (peptide)
chain: NPQKSCFIRLY
B10: WAS_Y83_Y83C_YF (peptide)
chain: NPQKSCFIRLF
B11: WAS_Y83_YF (peptide)
chain: NPQKSYFIRLF
B12: WDPCP_Y210 (peptide)
chain: LSALDYKIFYY
B13: WDPCP_Y210_YF (peptide)
chain: LSALDYKIFFF
B14: WDR5B_Y239 (peptide)
chain: LKLWDYSRGRC
B15: WFIKKN2_Y93 (peptide)
chain: CVAARYMDVKG
B16: WNT4_Y113 (peptide)
chain: EAAFVYAISSA
B17: WNT5A_Y86 (peptide)
chain: KLCHLYQDHMQ
B18: WWOX_Y287_L291P (peptide)
chain: PTKNDYWAMPA

target: SHP2 C-SH2 domain E139D; test: enrichment score (SH2-bound / input frequency) (ratio); bacterial display of known human phosphotyrosine sites (pTyr-Var adds point mutants) read by sequencing; higher = stronger binding; tyrosines were phosphorylated by kinases first; settings: peptide library: pTyr-Var
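Further: displayed peptides selected on beads carrying the immobilized SH2 domain, with library peptides lacking any tyrosine serving as negative controls.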

Enrichment score, inactive:
B1 1.05
B2 0.961
B3 0.942
B4 1.64
B5 1.57
B6 0.665
B7 1.24
B8 0.747
B9 0.891
B10 0.913
B11 0.877
B12 1.08
B13 0.682
B14 0.935
B15 0.762
B16 0.765
B17 1.68
B18 0.848

target: SHP2 C-SH2 domain wild-type; test: as above; settings: peptide library: pTyr-Var

Enrichment score, inactive:
B1 0.864
B2 0.972
B3 1.16
B4 1.58
B5 1.77
B6 0.751
B7 1.22
B8 0.709
B9 1.03
B10 0.88
B11 0.745
B12 1.08
B13 0.843
B14 1.29
B15 1.02
B16 0.729
B17 1.81
B18 0.63

target: SHP2 N-SH2 domain L43F; test: as above; settings: peptide library: pTyr-Var

Enrichment score, inactive:
B1 1.09
B2 1.05
B3 0.809
B4 1.54
B5 1.58
B6 0.528
B7 1.37
B8 0.551
B9 0.946
B10 0.802
B11 0.62
B12 1.04
B13 0.711
B14 0.794
B15 0.852
B16 0.799
B17 1.74
B18 0.65

target: SHP2 N-SH2 domain T42A; test: as above; settings: peptide library: pTyr-Var

Enrichment score, inactive:
B1 0.883
B2 0.789
B3 0.805
B4 1.12
B5 1.7
B6 0.595
B7 1.29
B8 0.559
B9 0.756
B10 0.676
B11 0.761
B12 0.997
B13 0.588
B14 1.12
B15 0.476
B16 0.729
B17 1.45
B18 0.674

target: SHP2 N-SH2 domain T52S; test: as above; settings: peptide library: pTyr-Var

Enrichment score, inactive:
B1 1.08
B2 0.848
B3 0.807
B4 1.25
B5 1.24
B6 0.702
B7 1.12
B8 0.584
B9 0.752
B10 0.765
B11 0.703
B12 1.19
B13 0.84
B14 0.962
B15 0.827
B16 0.63
B17 1.55
B18 0.539

target: SHP2 N-SH2 domain wild-type; test: as above; settings: peptide library: pTyr-Var

Enrichment score, inactive:
B1 0.931
B2 0.844
B3 1.24
B4 1.47
B5 1.64
B6 0.714
B7 1.19
B8 0.799
B9 0.988
B10 1
B11 0.784
B12 1.41
B13 0.841
B14 1.08
B15 1.31
B16 0.952
B17 1.64
B18 0.602
